# According to the supplement of paper PMC11876631:
# Changes are numbered by the printed parent chain. Names may count otherwise. ± gives the standard deviation of the averaged measurements. Laboratory Escherichia coli strains with one amino-acid change in an essential protein, pooled on minimal glucose agar with carbenicillin or gentamicin at twice the control MIC (plus kanamycin and chloramphenicol for the plasmids), 48 h. Fold change of barcode share against drug-free plates; higher = less susceptible. Active = above 20 in both replicates (the paper's putatively resistant). '<' = one read or none on drug, '>' = one read or none on a drug-free plate. Shares are relative, so most strains fall below 1 when a few take over. Listed are strains with at least 15 reads on both drug-free plates, and hits; most hits rest on fewer reference reads. Replicate rank correlation about 0.5. Edits are read from barcodes.
# B1: gapA F18W (protein)
# chain: MTIKVGINGFGRIGRIVWRAAQKRSDIEIVAINDLLDADYMAYMLKYDSTHGRFDGTVEVKDGHLIVNGKKIRVTAERDPANLKWDEVGVDVVAEATGLFLTDETARKHITAGAKKVVMTGPSKDNTPMFVKGANFDKYAGQDIVSNASCTTNCLAPLAKVINDNFGIIEGLMTTVHATTATQKTVDGPSHKDWRGGRGASQNIIPSSTGAAKAVGKVLPELNGKLTGMAFRVPTPNVSVVDLTVRLEKAATYEQIKAAVKAAAEGEMKGVLGYTEDDVVSTDFNGEVCTSVFDAKAGIALNDNFVKLVSWYDNETGYSNKVLDLIAHISK
# B2: gapA L155A (protein)
# chain: B1 chain with W18F, L155A
# B3: argC I302A (protein)
# chain: MLNTLIVGASGYAGAELVTYVNRHPHMNITALTVSAQSNDAGKLISDLHPQLKGIVDLPLQPMSDISEFSPGVDVVFLATAHEVSHDLAPQFLEAGCVVFDLSGAFRVNDATFYEKYYGFTHQYPELLEQAAYGLAEWCGNKLKEANLIAVPGCYPTAAQLALKPLIDADLLDLNQWPVINATSGVSGAGRKAAISNSFCEVSLQPYGVFTHRHQPEIATHLGADVIFTPHLGNFPRGILETITCRLKSGVTQAQVAQVLQQAYAHKPLVRLYDKGVPALKNVVGLPFCDIGFAVQGEHLIAVATEDNLLKGAAAQAVQCANIRFGYAETQSLI
# B4: glmS V96A (protein)
# chain: MCGIVGAIAQRDVAEILLEGLRRLEYRGYDSAGLAVVDAEGHMTRLRRLGKVQMLAQAAEEHPLHGGTGIAHTRWATHGEPSEVNAHPHVSEHIVAVHNGIIENHEPLREELKARGYTFVSETDTEVIAHLVNWELKQGGTLREAVLRAIPQLRGAYGTVIMDSRHPDTLLAARSGSPLVIGLGMGENFIASDQLALLPVTRRFIFLEEGDIAEITRRSVNIFDKTGAEVKRQDIESNLQYDAGDKGIYRHYMQKEIYEQPNAIKNTLTGRISHGQVDLSELGPNADELLSKVEHIQILACGTSYNSGMVSRYWFESLAGIPCDVEIASEFRYRKSAVRRNSLMITLSQSGETADTLAGLRLSKELGYLGSLAICNVPGSSLVRESDLALMTNAGTEIGVASTKAFTTQLTVLLMLVAKLSRLKGLDASIEHDIVHGLQALPSRIEQMLSQDKRIEALAEDFSDKHHALFLGRGDQYPIALEGALKLKEISYIHAEAYAAGELKHGPLALIDADMPVIVVAPNNELLEKLKSNIEEVRARGGQLYVFADQDAGFVSSDNMHIIEMPHVEEVIAPIFYTVPLQLLAYHVALIKGTDVDQPRNLAKSVTVE
# B5: glmS V96Q (protein)
# chain: B4 chain with A96Q
# B6: glmS V96D (protein)
# chain: B4 chain with A96D
# B7: glmS V96P (protein)
# chain: B4 chain with A96P
# B8: argC I302Q (protein)
# chain: B3 chain with A302Q
# B9: glmS V97A (protein)
# chain: B4 chain with A96V, V97A
# B10: glmS V97Q (protein)
# chain: B4 chain with A96V, V97Q
# Biological target: Escherichia coli (laboratory strain)
# Assay: barcode share on antibiotic plates over drug-free plates; higher = less susceptible
# Procedure: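 A pool of E. coli strains, each edited to carry one amino-acid change in an essential protein, was grown for 48 h on minimal glucose agar with or without antibiotic; strain barcodes were sequenced; mean of two replicates.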
# [1] = antibiotic: carbenicillin, 2× MIC (3.1 µg/mL)
# [2] = antibiotic: gentamicin, 2× MIC (MIC 0.45 µg/mL)
Protein,fold change of barcode share [1],fold change of barcode share [2]
B1,1.13 ± 1.1,< 0.00676
B2,0.94 ± 0.76,0.0158 ± 0.011
B3,0.235 ± 0.012,< 0.00358
B4,0.514 ± 0.44,0.0065 ± 0.0057
B5,0.263 ± 0.083,0.00584 ± 0.0058
B6,0.263 ± 0.017,0.0049 ± 0.0027
B7,0.532 ± 0.13,0.00458 ± 0.0015
B8,0.293 ± 0.076,< 0.00589
B9,0.358 ± 0.1,0.00634 ± 0.0029
B10,0.291 ± 0.084,< 0.00594
